The subject of the experiment is Axl autophosphorylation (Tyrosine 866) in HeLa cells. Briefly: Phospho-Axl (Y866) ELISA on HeLa cell lysates. The experiment is classed as cell-based, human. As to the method:
To assess the level to which various Axl inhibitors reduce activation of Axl, as assessed through on of inhibition of Tyrosine 866 (Y866), one of Axl's known autophosphorylation sites (others include Y779 and Y821—see Oncotarget. 2014 October; 5(20): 9546-9563; doi: 10.18632/oncotarget.2542 and references cited therein).
Lysate Preparation • 1. Seed out HeLa cells in 14 10-cm dishes • a. 3 million cells per dish • 2. Incubate cells until attached • 3. Remove medium and wash cells with PBS • 4. Serum-starve the cells in 0.5% FBS media • a. 0.5% MEM for HeLa • b. O/N, at least 24 hour starvation • 5. Incubate cells with anti-Axl antibodies for 1 hour in 6 ml fresh 0.5% MEM. • a. BGB324 (CAS=1037624-75-1, UNII=0ICW2LX8AS): 0.2 uM • b. H2L1-Evitra*: 50 ug/ml • c. H2L1-Catalent*: 50 ug/ml • d. YW327.6S2: 50 ug/ml • *same sequence, different preparation • 6. Stimulate designated plates with 0.01 ug/ml rhGas6 in 6 ml of total media per 10-cm dish. • a. rhGas6 stimulation 0.01 ug/ml • 7. Set-up: Make each in 26 ml of 0.5% MEM • #1. Starvation • #2. rhGas6 stimulation (0.01 ug/ml) • #3. rhGas6 stimulation+pre-incubation with BGB324 0.2 uM • #4. rhGas6 stimulation+pre-incubation with H2L1-Evitra: 50 ug/ml • #5. rhGas6 stimulation+pre-incubation with H2L1-Catalent: 50 ug/ml • #6. rhGas6 stimulation+pre-incubation with YW327.6S2 50 ug/ml • #7. BGB324 0.2 uM alone • #8. H2L1-Evitra: 50 ug/ml alone • #9. H2L1-Catalent: 50 ug/ml alone • #10. YW327.6S2 50 ug/ml alone • 8. Stop reaction by lysing cells on ice • 9. Wash with cold PBS • 10. Add RIPA buffer (plus phosphatase inhibitors) • a. 100 ul/dish • 11. Scrape cells from dish • 12. Incubate 5-10 min on ice • 13. Spin down 13,000 rpm 5-10 min (cold) • 14. Supernatant transferred to fresh tube • 15. Measure phospho-protein by ELISA
Axl protein using BerGenBio's monoclonal mouse anti-HsAxl antibody 5F11 as the capture antibody, and the affinity selected polyclonal rabbit anti-phospho-Axl antibodies (pAxl-Y866-16) as the detection antibody.
Materials • Nunc MaxiSorp 96C plates • Tris-buffered saline (TBS) pH7.6 • Tween 20 (Sigma) • Wash buffer (TBS+0.05% Tween 20) • Fetal bovine serum (FBS) (Sigma) • Monoclonal mouse anti-HsAxl antibody 5F11, 3.6 mg/ml stock (BerGenBio). • Polyclonal rabbit anti-Hs-phospho-Y866 Axl antibody pAxl-Y866-16, 1.0 mg/ml (BerGenBio). Use diluted 1:1000 in TBS+10% FBS • HRP-conjugated Goat anti-Rabbit secondary antibody (Jackson Labs 111-035-144). Use at 1:2000 in TBS+10% FBS • Recombinant Human AxlFc chimera (AxlFc standard)(R&D Systems, 154-AL-100) • Recombinant Human AxlFc chimera conjugated to phospho-Axl peptides (pAxlFc standard) (BerGenBio) • 0.2M Sodium carbonate buffer pH9.4 • TMB stock solution (10 mg/ml 3,3′,5,5′-Tetramethylbenzidine, Sigma T2885 in DMSO) • 100 mM Sodium acetate pH6 • 1M H2SO4 • 30% Hydrogen peroxide solution • Lysates: prepared as above. For HeLa cells total protein concentration 1.5 mg/ml gives a strong signal. • Microplate reader with 450 nm absorbance. Absorbance at 595 nm (if available) should be subtracted to reduce background, but the effect is marginal. […]
Develop • Prepare fresh substrate solution: • 100 μl 10 mg/ml TMB stock solution • 10 μl 30% Hydrogen peroxide solution • 9.9 ml 100 mM Sodium acetate pH6 • Optional: test a small volume of the substrate solution by adding 1 μl leftover HRP-conjugated detection antibody mixture (step 12). […] Read plate on microplate reader with absorbance of 450 nm.
Background: ELISA stands for enzyme-linked immunosorbent assay.

Where [1] appears, read: agent alone, starved HeLa (antibodies 50 ug/ml, BGB324 0.2 uM, rhGas6 0.01 ug/ml).
[2] abbreviates: rhGas6 0.01 ug/ml stimulation after 1 hour pre-incubation (antibodies 50 ug/ml, BGB324 0.2 uM), starved HeLa.

B1: H2L1 (Evitria): H2L1, same sequence, different preparation (antibody)
heavy: EVQLVESGGGLVQPGGSLRLSCAASGYSFTDFYINWVRQAPGKGLEWVARIFPGGDNTYYNEKFKGRFTLSADTSKSTAYLQMNSLRAEDTAVYYCARRGLYYAMDYWGQGTLVTVSS[in this place human IgG1 constant region]
light: DIQMTQSPSSLSASVGDRVTITCRSSQSLVHSNGIPYLHWYQQKPGKAPKLLIYRVSNRFSGVPSRFSGSGSGTDFTLTISSLQPEDFATYYCSQGTHVPPTFGQGTKVEIKRTVAAPSVFIFPPSDEQLKSGTASVVCLLNNFYPREAKVQWKVDNALQSGNSQESVTEQDSKDSTYSLSSTLTLSKADYEKHKVYACEVTHQGLSSPVTKSFNRGEC
As to B1, the “Absorbance @ 450 nm (pAxl reading)” value amounted to 0.047 under setting [1]; 0.04 under setting [2]; 0.040 (rhGas6 0.01 ug/ml stimulation after 1 hour pre-incubation (antibodies 50 ug/ml, BGB324 0.2 uM), starved HeLa, listed as H2L1-Evitria).

B2: H2L1 (Catalent): H2L1, same sequence, different preparation (antibody)
heavy: EVQLVESGGGLVQPGGSLRLSCAASGYSFTDFYINWVRQAPGKGLEWVARIFPGGDNTYYNEKFKGRFTLSADTSKSTAYLQMNSLRAEDTAVYYCARRGLYYAMDYWGQGTLVTVSS[in this place human IgG1 constant region]
light: DIQMTQSPSSLSASVGDRVTITCRSSQSLVHSNGIPYLHWYQQKPGKAPKLLIYRVSNRFSGVPSRFSGSGSGTDFTLTISSLQPEDFATYYCSQGTHVPPTFGQGTKVEIKRTVAAPSVFIFPPSDEQLKSGTASVVCLLNNFYPREAKVQWKVDNALQSGNSQESVTEQDSKDSTYSLSSTLTLSKADYEKHKVYACEVTHQGLSSPVTKSFNRGEC
For B2, the “Absorbance @ 450 nm (pAxl reading)” value worked out at 0.059 under setting [1] and 0.055 under setting [2].

(Values after patent publication US11732048B2, “Anti-axl antagonistic antibodies” (BERGEN TEKNOLOGIOVERFØRING AS, priority 2016, dated 2023).)
